# Reference: PubChem BioAssay AID1345082 (National Center for Advancing Translational Sciences (NCATS), 2018)
# Screen size: about 94,000 compounds; about 4,000 (4.3%) were called active. Inconclusive means that the source gave no clear call. Such entries were picked first, then a sample of the others. Calls come from the whole dose curve; as a rule, active = well fitted inhibition curve with a large enough effect; inconclusive = small, poorly fitted or top-dose-only effect; inactive = no such curve, though single readings can be large or run the other way. Where the call is inconclusive, the potency comes from a doubtful curve fit.
# Test: Cytotoxic Profiling in NIH 3T3 Cell Line of Diverse Libraries Using Quantitative High-Throughput Screening; note: nearly all actives have a fitted effect of over 55% in size
# Conditions: NIH 3T3 viability, CellTiter-Glo ATP luminescence, 48-72 h; activity change, negative = cytotoxicity: at 96.7 µM (top of the series) unless noted; series mostly up to 96.7 µM
# Method in brief: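 Cytotoxicity was measured by CellTiter-Glo ATP luminescence after 48 or 72 h compound exposure at 37 °C. Mouse NIH 3T3 fibroblasts were seeded at 400 cells/well and dosed by 23 nL pin transfer.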
# % is set by controls: 0 for no effect and ±100 for the full control effect; potency is the fitted concentration of half-maximal effect; tags give direction and shape of the fitted curve.
Compound,Potency,"activity change, negative = cytotoxicity",outcome
COc1ccccc1CNC(=O)C1(c2ccc(NC(=O)C3CC3)cc2)CCCCC1,"inconclusive: 63.1 µM [inhibitor, partial curve, poor fit]",,
Cc1ccc(F)cc1S(=O)(=O)N1CCCC(Cn2c(C3CC3)nc3cccnc32)C1 (configuration not stated),"inconclusive: 50.1 µM [inhibitor, single point]",,
COc1cccc(NC(=O)Cn2c(=O)c3c(n2Cc2ccccc2)CN(Cc2ccccc2)CC3)c1,,inactive: -26.7%,
CC(C)CN1C(=O)CCc2cc(NC(=O)c3c(F)cccc3F)ccc21,"inconclusive: 44.7 µM [inhibitor, partial curve, poor fit]",,
CNC(=O)[C@@H](c1ccc(Cl)cc1)N1CCC[C@H]1C(=O)NC(C)C,,,inactive [at 138 µM]
CNc1ncc(C(=O)N2CCCC3(CCC(=O)N(CCOC)C3)C2)cn1 (configuration not stated),,inactive: -1.85%,
O=C(NCc1nnc2ccc(-c3ccc(Cl)cc3)nn12)c1cc(F)ccc1F,,inactive: -21.1%,
CN1CCN(C(=O)[C@H]2C[C@@](C)(C(=O)O)N(C)[C@H]2c2ccc(Cl)cc2)CC1,,inactive: -4.51%,
CN(C)C(=O)c1cn2cc(-c3cccc(C(F)(F)F)c3)sc2n1,,inactive: -3.01% [at 138 µM],
O=C(c1cccc(Cl)c1)N1CCCN(c2ccnc3ccnn23)CC1,"inconclusive: 44.7 µM [inhibitor, partial curve, poor fit]",,
Cc1noc(C)c1-c1cc2c(cc(C)n2C)c(NC2CCN(C)CC2)n1,"inconclusive: 56.2 µM [inhibitor, partial curve, poor fit]",,
COc1cccc(CNC(=O)c2ccc3nnc(-c4ccc(C(F)(F)F)cc4)n3c2)c1,,inactive: -16.7%,
COCc1ncc(C)n1CCNC(=O)c1c(C)noc1C,,inactive: 1.7%,
COc1ccccc1-c1cc(-c2cn[nH]c2)c2cncn2c1,active: 50.1 µM,,
COC1CCCN(Cc2cn(-c3ccc(F)cc3)nc2-c2ccccc2Cl)C1 (configuration not stated),"inconclusive: 79.4 µM [inhibitor, partial curve, poor fit]",,
C=CCOc1c(OC)ccc2c1CN(C(C)C)C(=O)CCN2C[C@@H](O)COCc1ccccc1,"inconclusive: 79.4 µM [inhibitor, partial curve, poor fit]",,
CCc1noc(-c2nc(-c3ccccc3C)no2)n1,,inactive: -24.1%,
COc1cccc(N2C(=O)NC(=NC3CCCC3)C23CCCN(CC2CC2)C3)c1 (configuration not stated),"inconclusive: 56.2 µM [inhibitor, partial curve, poor fit]",,
CC(C)n1cc(CN2CCCCCNC(=O)[C@@H]3CCC[C@@H]32)c2ccccc21,"inconclusive: 56.2 µM [inhibitor, partial curve, poor fit]",,
COc1ccccc1-c1cccc(CN2CCCC(C(=O)N3CCN(c4ncccn4)CC3)C2)c1 (configuration not stated),"inconclusive: 35.5 µM [inhibitor, partial curve, poor fit]",,
C=CCN1CC2(CCC1=O)CCN(C(=O)[C@@H]1C[C@H]1c1ccccc1)CC2,,inactive: 1.95%,
COCc1nnc2n1CCC(NC(=O)CCc1c(C)noc1C)CC2 (configuration not stated),,inactive: -21.7%,
O=C([C@@H]1C[C@H](F)CN1S(=O)(=O)c1cc(F)ccc1F)N1CCCCC1,,inactive: -16.3%,

Compound,Potency,"activity change, negative = cytotoxicity",outcome
CC(=O)Nc1ccc(CN2C(=O)OC3(CCN(Cc4ccc(C#N)cc4)CC3)C2(C)c2ccccc2)cc1 (configuration not stated),,inactive: -27.8%,
CC(C)(C)c1coc([C@@H]2COCCN2Cc2ccc(Cl)cc2)n1,,inactive: -12.8% [at 138 µM],
COc1ccc(C(CC(=O)NCCc2ccccc2)c2c[nH]c3ccccc23)cc1OC (configuration not stated),"inconclusive: 44.7 µM [inhibitor, partial curve, poor fit]",,
CN(Cc1cncs1)C1CCCc2ccccc21 (configuration not stated),"inconclusive: 100 µM [inhibitor, partial curve, poor fit]",,
CN1C(=O)[C@H]2CN(Cc3ccc(Br)cc3)C[C@H]2C1=O,"inconclusive: 44.7 µM [inhibitor, partial curve, poor fit]",,
CCCCc1nn(CC(=O)N2CCC(COC)C2)c(=O)n1Cc1ccccc1 (configuration not stated),,inactive: -2.64%,
CNC(=O)c1cc(C2CC2)nc2onc(C3CCCN3C(=O)c3ccccc3F)c12 (configuration not stated),,inactive: -16.2%,
CC(C)OC(=O)N(C)Cc1cccc(N2CCN(C(=O)c3c(Cl)cccc3Cl)CC2)c1F,"inconclusive: 31.6 µM [inhibitor, partial curve]",,
OCCC#Cc1ccc(CN2CCC(CO)(Cc3ccccc3Cl)CC2)cc1,"inconclusive: 50.1 µM [inhibitor, partial curve, poor fit]",,
O=C(Nc1ccc(Cl)cc1)N1CCN(C(=O)c2nc3cccnc3n(Cc3ccccc3)c2=O)CC1,"inconclusive: 44.7 µM [inhibitor, partial curve]",,
COc1ccc(-c2ccnc(-c3nnc(C)n3C3CCCCC3)c2)cc1OC,"inconclusive: 20 µM [inhibitor, full curve, poor fit]",,
O=C1[C@@H]2C[C@@H](CN2Cc2ccc(F)c(F)c2)Oc2ccccc2N1Cc1ccccn1,"inconclusive: 89.1 µM [inhibitor, partial curve, poor fit]",,
Cn1nc(C(=O)NC2CC2)c2c1CN(C(=O)c1cccs1)C2,,inactive: -20%,
Cn1cnc(S(=O)(=O)N2CCCCC2c2noc(COCC3CC3)n2)c1 (configuration not stated),,,inactive
COc1ccccc1-c1cccc(CN2CCC(NC(=O)c3ccccc3)CC2)c1,"inconclusive: 44.7 µM [inhibitor, partial curve, poor fit]",,
O=C(COc1ccccc1)N1CCC(n2cc(-c3nc(-c4ccccc4)no3)nn2)CC1,active: 12.6 µM,,
O=C(c1ccccc1)N1CCN(CCn2nc3n(c2=O)CCCC3)CC1,,inactive: -7.89%,
COc1ccc(-c2cc(N3CCC(NC(=O)c4ccc(C)cc4C)C3)n[nH]2)cc1 (configuration not stated),"inconclusive: 50.1 µM [inhibitor, partial curve, poor fit]",,
Cc1ccc([S+](=O)([O-])N2CCCC(C(=O)N3CCC(N4CCOCC4=O)CC3)C2)cc1 (configuration not stated),"inconclusive: 44.7 µM [inhibitor, partial curve, poor fit]",,
CN(CC#N)C(=O)c1cc(-c2cccc(F)c2)nc2c1cnn2C,"inconclusive: 56.2 µM [inhibitor, partial curve, poor fit]",,
OCc1ccc(CN2C[C@H](O)C[C@H]2c2nc(-c3ccc(OC(F)(F)F)cc3)no2)o1,"inconclusive: 100 µM [inhibitor, partial curve, poor fit]",,
COc1ccc(S(=O)(=O)N[C@H]2[C@H](O)[C@H](O)C[C@@H]2c2ccccc2C)cc1,,inactive: 3.33% [at 138 µM],
O=C(c1ccc(Cl)cc1)N1CC2(CCCN(Cc3cccnc3)C2)Cc2ccccc21 (configuration not stated),"inconclusive: 50.1 µM [inhibitor, partial curve, poor fit]",,

Compound,Potency,"activity change, negative = cytotoxicity",outcome
COc1ccccc1Nc1ccnc(N2CCN(C(=O)c3cccc(Cl)c3)CC2)n1,"inconclusive: 28.2 µM [inhibitor, partial curve, poor fit]",,
CCc1ccc(NC(=O)Cn2c(-c3ccc(Cl)cc3)nc(C)c(CCO)c2=O)cc1,active: 44.7 µM,,
O=C1OC2(CN1CCOc1ccccc1)CN(C(=O)c1ccc(Oc3ccccc3)cc1)C2,"inconclusive: 5.62 µM [inhibitor, full curve, poor fit]",,
COc1cccc(CN2C(=O)OC3(CCN(Cc4c[nH]c5ccccc45)CC3)C2(C)c2cccnc2)c1 (configuration not stated),active: 31.6 µM,,
Cc1ncccc1C(=O)N1CC(Oc2ccccc2-c2nc(-c3ccccc3)no2)C1,"inconclusive: 44.7 µM [inhibitor, partial curve, poor fit]",,
CCC(O)c1cc2n(n1)CCN(c1nc(-c3ccccc3)nc3c1CCC3)C2 (configuration not stated),"inconclusive: 50.1 µM [inhibitor, partial curve, poor fit]",,
OC(CNc1nccc(-c2cccnc2)n1)COc1ccc(Cl)cc1 (configuration not stated),"inconclusive: 50.1 µM [inhibitor, partial curve, poor fit]",,
FC(F)(F)c1ccc(N2C3CCC2CN(Cc2ccccc2)C3)cc1,"inconclusive: 70.8 µM [inhibitor, single point]",,
O=C(c1cccn2nccc12)N1CCOCC1,,inactive: -4.16% [at 138 µM],
COc1ccccc1CN1Cc2cc(NC(=O)c3ccc(Cl)cc3)ccc2OC(C)C1=O (configuration not stated),"inconclusive: 25.1 µM [inhibitor, full curve]",,
COc1cccc(-c2ccc(C(=O)NCCNC(=O)NC3CCCC3)cc2)c1,,inactive: -27.5%,
COc1cccc(Nc2ccc(CN3CCC(C)(NC(C)=O)C3)cc2)c1 (configuration not stated),active: 89.1 µM,,
O=C(C1CCN(Cc2ccccc2-c2cccnc2)CC1)N1CCN(Cc2ccccc2)CC1,,inactive: -38.3%,
O=C(c1ccccc1F)N1CCN(C(=O)c2nnn3c2COC(c2ccccc2)C3)CC1 (configuration not stated),,inactive: -9.23%,
COc1ccc(NC(=O)Cn2c(N3CCCCC3)nc(C)c(C)c2=O)cc1,"inconclusive: 50.1 µM [inhibitor, partial curve, poor fit]",,
O=C1COc2ccc(OCc3cncs3)nc2CN1CCOc1ccccc1,"inconclusive: 79.4 µM [inhibitor, partial curve]",,
CN(C)CCOCC1(C)COc2ccc(C(=O)Nc3ccc4[nH]ccc4c3)cc2N1 (configuration not stated),"inconclusive: 112 µM [inhibitor, single point]",,
O=C(NCc1ccccc1F)c1ccc2c(c1)CN(CC1=Cc3ccccc3OC1)CCO2,"inconclusive: 25.1 µM [inhibitor, full curve, poor fit]",,
CNC(=O)CCn1ncc2cc(OCc3ccccc3-c3ccccc3F)ccc21,active: 79.4 µM,,
O=C(CCc1ccccc1)N1CCC2(CC1)CC(N(Cc1ccccc1)C1CC1)CCO2 (configuration not stated),"inconclusive: 50.1 µM [inhibitor, partial curve, poor fit]",,
CN(Cc1nc(-c2ccccc2)cs1)C(=O)COc1ccc(F)cc1F,"inconclusive: 89.1 µM [inhibitor, single point]",,
